The RNAGym collection of RNA variant scans (doi:10.1073/pnas.2313332121)
Variants at the floor of the assay are shown more often than the library holds them.

B1: TPR 5TU (parent)
chain: GGAUCUUCUCGAUCUAACAAAAAAGACAAAUCUGCCACAAAGCUUGAGAGCAUCUUCGGAUGCAGAGGCGGCAGCCUUCGGUGGCGCGAUAGCGCCAACGUUCUCAACUAUGACACGCAAAACGCGUGCUCCGUUGAAUGGAGUUUAUCAUG

Variants of: B1
Test: polymerase ribozyme fitness, log enrichment relative to wild type (log ratio); higher = more active; in vitro selection for triplet polymerase activity
Outline: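 Fitness compares each genotype's enrichment to that of the wild type on a logarithmic scale, averaging replicates with inverse-variance weights. The logarithm is base 2. Enrichment came from Illumina sequencing of input and output libraries after one triplicate round of in vitro selection, which included frozen incubation at −7 °C, of PCR-built, transcribed mutant libraries of each subunit of a heterodimeric triplet polymerase ribozyme. Only genotypes with ≥10 input reads and ≥1 read per output were kept.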

Polymerase ribozyme fitness (log ratio), ≤ -4.2:
A28U C35G U45A A66C C79A C87U C129A U135G
A28U C35U C85A G143U
A28U C35U C96U U135A G136A G143C
A28U C38G U53A C87U C118G G141C
A28U C38U A39U C57U
A28U C43U A73G C85A C118A
A28U C54A U56G A73C G94U A98U C105U A121C U139A A147C
A28U C54U C85A G88A A115U G141U C149U
A28U C85U C103A G128A
A28U C87U
A28U C95U C99A A107G
A28U C96A A150C
A28U G42U C79A C95U U101G C131G
A28U G46A G68A C79G G92A C108A A119U A150C
A28U G50A C57A A64C C75U G88U C95A
A28U G59U C87G A115G G133U
A28U G62A C132A
A28U G70A G81C A120G
A28U G83C U134G
A28U G92C U144A
A28U G124A A142C U148G
A28U G143C
A28U U31C U45A A49C A66G C87U U101A U139A
A28U U31G G50A U56A C72U C85U C118G
A28U U44A C75G C93A C99U C123A
A28U U55A G58C G65A
A28U U55A G84U A89U
A28U U61A G65A G68C G81A C114U A150U
A29C A37G A89G G143C
A29C A37U G42C U56G G84A C129A U145C
A29C A39C C79U U90C A91U
A29C A39U U61G C76U C85G C105G C125U
A29C A40C A52G U61A
A29C A40C C93A A150U
A29C A49C C63G G88U U109C G143C
A29C C32G C54A U82A C96A A150G
A29C C32U C35G U56A A60U C105G
A29C C36A A49G C51U C57A G124A
A29C C36A U55A U61G C87A A121U
A29C C36G G83U G84A G92C C96U
A29C C51A A52C C95A C118G U139G G143C
A29C C51U U78G
A29C C57A C87U
A29C C57U C79U C87A C129U
A29C C57U C125G G141U
A29C C76G
A29C C96G G133C
A29C G42C G92U U104G U130G G143A
A29C G71A C96G C116U U139C
A29C G71C A106C A110C
A29C G80A C85G U148A
A29C G92C U151C
A29C U31A U56A U77G C93G G136U
A29C U53A A66U C85G A107U
A29C U53A U55A U56A A73G C96A C118A G126A G141A
A29C U53G A60U G80A C87G A119G C125A C132G
A29C U56C A91U G100A
A29C U77G U78G G94A
A29G A30U G46C C105U A122G U135G A150C
A29G A39C C69G G83A G86C A97U A120G
A29G A41C C76G
A29G A41C G42A C51G C54U G59C G83A G92U A150C
A29G A41C G42U C72G U101G C114A A120G G140U
A29G A41C U55A C57U G59C A64U A119U U144A U151A
A29G A41U U77G U90G G141A U145G
A29G A47C U61A U82G C108A
A29G A49C C75A C85A C125A U135G A147G U148G
A29G A52G C85G G94C
A29G C35U A47C U82G A91U G92C A107U C131U
A29G C35U G84U C103G
A29G C38A C63G G67C C79A C93A
A29G C43A G50C U82A A91C C125U
A29G C93U C95G C96U
A29G G59A A60U A64C C79A C131G G152U
A29G G62U U82C
A29G G80C C93G G128U U145C
A29G G84U U134C
A29G U45G G58A C76G C87U C99A U139C G140U
A29G U53C G68C C76U G86U G136A
A29G U55A U144G
A29G U56G G68A U90C A98U A106G C114A U127A G152U
A29U A37U A73G A138G G143C
A29U A37U G46C C85G G117C
A29U A39C A66C C76U U82A A91C C105U A120C
A29U A39U C57U A66C G67A G84A A91G C105G U111G
A29U A40C U77C G88A A137C
A29U A40G A49C C57U U77G G83C U111A A115G
A29U A40G C79G G80A G83U A142U
A29U A40U C76G G86A G140A U145C
A29U A40U U56A C69A U82A A89G C96U C105U G140U
A29U A41C G62U A64C G65A A66C A73C C79A C95U
A29U A41U G88C C99U A142G
A29U A47C A91G C99U C108A G117A
A29U A52C C114G
A29U A52G U55G G65A G67U C96A
A29U A60G U90G U145G
A29U A64U G83A C95A C123A G143C
A29U A73G C95U A142G G152U
A29U A73U C95A A113U C125U G143C
A29U A97U
A29U C32U A89C G100C A106G
A29U C38U U44G A60C C95U U102G U148A
A29U C38U U90A A120U U135G G143U
A29U C51G C95U C103G
A29U C54G G86C
A29U C54U A91G A97C A110U G124U C125U
A29U C75U C95A A107U
A29U C76A G117C
A29U C85A C96U
A29U C87U C96U A113U G141U
A29U G42U A49C G70C G92A C103U C108G
A29U G46A U56A G68U G84A U148C
A29U G48C A60C C93G
A29U G58A C93U U127C
A29U G58C G70C C99G A120G
A29U G58C G81C A91U
A29U G59A C85A
A29U G59C C85A C103U U134A A138C
A29U G62C G86A C96G
A29U G62U C63A A89U U111G U145A
A29U G68U G84U C87A
A29U G86U
A29U G86U A91G
A29U G94C C95U U135A
A29U U31A A60G C63A C93U A97C G126U
A29U U33A C72U C87G G152A
A29U U33A G84U A89G U135A
A29U U33A U55A A66C C99G U102G A142G A150G
A29U U53A A91G A97C G126A
A29U U53A C93A
A29U U53C G88U G143A U145G U151G
A29U U53G C76A A98G C99U A119U
A29U U53G G68U
A29U U55A G68U C87U G100U U101G
A29U U77A U101G U127A G140U
A29U U77G C114A
A29U U78A C118U
A30C A39C U55G C72A U90A A91G G92A C116A G128U C131A A138C
A30C A40C A47C G84A
A30C A47U G59A A60C A91U A106G U111G
A30C A49U G94U A110C U144G
A30C A64C C116G
A30C A66C C87A U127A
A30C A66U U77G
A30C A91G C93A
A30C C38A C87A
A30C C57G C85A A98U A120U G133U
A30C C72U C79G C87U C95U G100A G124U A137G
A30C C85A A89U
A30C C93U A110G U151C
A30C G34U C43A G80C G83A A91G A137G
A30C G50C C72A G83U A98U A110U C116G
A30C G58C A66U U77G
A30C U44A A66U C85U A98U C103U
A30C U44C G58C C79G G86A G143A U151A
A30C U82G C87A A89G
A30G A39G C72G C116A A138C G141C
A30G A47C C75U
A30G A47C C87U A113G C118G
A30G A47C G50U C87G U139A
A30G A49C C69U G80U C103U A150C
A30G A52C C93A A113U
A30G A52G C87U A91G
A30G A73U G84U U111G G133U G141A
A30G C36U G58A C93G A97U
A30G C38A G84A A137G
A30G C96A U130G
